± gives the standard deviation of the averaged measurements. The list shows a part of the results.
System: PfAP2-G AP2 domain (GST-tagged)
Experiment: gcPBM binding intensity (ln(normalized median fluorescence intensity)); higher = stronger DNA binding
Summary of the method: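 GST-fused DNA-binding domains of P. falciparum, expressed in E. coli, were applied at about 25 μg on average for 1 h to an Agilent 4 × 180k array of primer-extended double-stranded 36-bp intergenic genomic probes and negative controls. Binding intensity is the highest Masliner-normalised natural-log median intensity across replicate spots of either probe orientation, measured with Alexa488 anti-GST antibody and a 488 nm scan.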

Row | Sequence | gcPBM binding intensity (ln)
1 | TTGATGTATACAATGTAGATTATTTAATATTTCAAC [CACACA_negctrl_site73] | 9.875 ± 0.007
2 | ATTAGTATTAGATGATGTACATTTATATTGAAATAT [XGTACX_site8537] | 11.1 ± 0.56
3 | TTTTTTTTTTTTTTCACACACTAATAATATTATCAT [CACACA_site4417] | 9.71 ± 0.22
4 | ATAAATTTTTAAAAATATGAATTATGTAATTTGTGA [CACACA_negctrl_site1621] | 9.9 ± 0.071
5 | AAAAGGAAGATATATACACACATACAAATATATATA [CACACA_site5236] | 9.765 ± 0.064
6 | CTATTTGGGGGAAGAGTGCATGACATGAATATAAAA | 10.8 ± 0.61
7 | TGTTATTTAAATAATTCTTTTTAAAAGATGAATTAT [CACACA_negctrl_site1226] | 9.85 ± 0.28
8 | ATGGTCTGTTAAAGATGTACTTTTTAAAAATAAACG [XGTACX_site2583] | 11.4 ± 0.88
9 | ATAAAAATACAGTTAACACACATGTGTATTTATATG [CACACA_site7727] | 10.4 ± 0.26
10 | GAAAACGTTTGAAGTTGTACATATGTATAAAAAGAA [XGTACX_site2304] | 11.3 ± 0.89
11 | AATAGGAAAGATTTTGCATGTGATATAAGTAATTTT [TGCATGCA_site657] | 9.87
12 | TATAATATTTATATAACACACATATAGATTTATTTA [CACACA_site6269] | 9.79 ± 0.028
13 | CATATAATAAATAGATGTACAGACTATATATATATA [XGTACX_site6575] | 11.1 ± 0.61
14 | TTTATATGATACACACGTACATATACACATATACAC [XGTACX_site8123] | 11.3 ± 0.67
15 | TATATATATATTTTTGCACACATTTTTTAAGGTACA [CACACA_site2145] | 10.8 ± 0.45
16 | TATATTAAAGGGGTTTCACACACATGTATAATTAAT [CACACA_site7950] | 10.11 ± 0.092
17 | TATTATTTAATCAAATGTACATAGAAAATGTATGTA [XGTACX_site4433] | 10.9 ± 0.55
18 | ATGTAAAATTAATATTGTACTTTTCCATCATGATAC [XGTACX_site2669] | 11.3 ± 0.79
19 | AAAAAGAAGAATAATACACACAAATTATTTTATATA [CACACA_site1919] | 9.84 ± 0.057

Row | Sequence | gcPBM binding intensity (ln)
20 | TATTCCAAAAATGTGTGTACATAAATACAATATTAT [XGTACX_site2653] | 11.4 ± 0.89
21 | TATAATAAATGGACGGTGCGACATGACCATATGTGT [GTGCAC_site9476] | 11 ± 0.53
22 | TTGTTAATAAAAATATTGGAAAGTTTATAAAATTTT [CACACA_negctrl_site1487] | 9.775 ± 0.092
23 | TTATTTTCTTTTTCTTGTACACACATAATATGGATG [XGTACX_site1481] | 11.3 ± 0.68
24 | ATAATATATATACAAACACACAATTGCGTCCACATT [CACACA_site8515] | 11.5 ± 0.86
25 | GACACCCATAAATATACACACGCACAACACAAAATA [CACACA_site8944] | 10.4 ± 0.29
26 | CTTACCAAAAAACACACACACACAAAATATATAAAT [CACACA_site1870] | 10.1 ± 0.17
27 | TTATTTTTTAGTAGTACACACTTTTTGTACCTTTTA [CACACA_site4503] | 11.8 ± 1.1
28 | AATAAAAAAAAAAAAAAAAAAAAAAAGACACTAAAA [CACACA_negctrl_site1075] | 9.875 ± 0.035
29 | CTAAAAGAACATGTGTGTACTTATGTTCTCTTTTTT [XGTACX_site5983] | 11.4 ± 0.74
30 | ATGAAATTTTCATATTGTACTATTAAAAATATATTT [XGTACX_site1989] | 11 ± 0.63
31 | CATTGACCATTAATTTGTACACAAGGGGAAATGAGG [XGTACX_site1756] | 11.5 ± 0.97
32 | TATATATATATATATATATATATATATATATATATT [CACACA_negctrl_site1440] | 9.73 ± 0.62
33 | TCTTTCTGCTCTTATACACACAAATAAAGATTTTTT [CACACA_site2700] | 10.2
34 | TTTGCTTCGATATATTCACACATTTTTTTTCTTATT [CACACA_site4499] | 9.85 ± 0.23
35 | AAATGTAATAAATATACACACACAAATATATATATA [CACACA_site8754] | 9.71 ± 0.071
36 | AATTTCATTTTTAGAAGTACATTTATATTAAAAATC [XGTACX_site2888] | 11.2 ± 0.95
37 | TGTAGATTTTGTAACACACACATATAAATACAGATA [CACACA_site5343] | 10.2 ± 0.16
38 | TAAGGGATATGTATATGTACATACAAATATATATAA [XGTACX_site2892] | 11.1 ± 0.66

Row | Sequence | gcPBM binding intensity (ln)
39 | ATATAAATAAAAAAAAGTACATAATATATAAAAATA [XGTACX_site3065] | 11.5 ± 1
40 | CTTTTACGTTTAGGATGTACATTTAAAAAAAAAGAA [XGTACX_site8032] | 11.2 ± 0.78
41 | TAAGATCCTTAAAACGCATGCAGTATTTTTATTTCT [TGCATGCA_site532] | 9.56 ± 0.22
42 | TAGCCAAAAGGATATGCACACACACCCACATATATA [CACACA_site8684] | 10.2 ± 0.26
43 | CATATAATTATTTTCACACATATAACTACATCTATA [CACACA_site5915] | 9.935 ± 0.064
44 | TTAGCAGGACGTTTGGTGCACGTACTGTTTTTCTTT [GTGCAC_site9856] | 11.1 ± 0.67
45 | ATTATAAGAATTAAAAGAAACAAAATTTTAATTATA [CACACA_negctrl_site610] | 9.65 ± 0.13
46 | AATAAATATTAAATGACAAAAAAAAAAAAAAAAGGG [XGTACX_negctrl_site15] | 10.4 ± 0.41
47 | TATAATCCATAAGAAGCACACACATATATATATATT [CACACA_site8394] | 9.93 ± 0.16
48 | TTAAGATGCATAAATACATGCAAAGTAAATAATTCT [TGCATGCA_site517] | 9.88 ± 0.014
49 | TTTATTCTCCACACCCGTACACATTTTTTTTGCATA [XGTACX_site5615] | 11.4 ± 0.84
50 | AAAAAAAAAAAAAACACACACACACGCAGATATATA [CACACA_site6672] | 10.2 ± 0.21
51 | ATTATAGACAACTCTTTTTCTAAACTATTTTATTTT [CACACA_negctrl_site1754] | 9.985 ± 0.021
52 | CATAATATTTGTGAAAGTACTTATTTTACAATAGGG [XGTACX_site5004] | 11.3 ± 0.75
53 | AAATAAAGAAATATATGTACATATATATATATATAT [XGTACX_site5131] | 11.3 ± 0.43
54 | TTTCTTAAAATATAAAGTACTAAAATGAAAATATAT [XGTACX_site2173] | 11.1 ± 0.75
55 | AAAAAATATAAAACGAGTACATATATAATAAGCAAA [XGTACX_site1360] | 11.4 ± 0.82
56 | CTTCTTTTGTGATAAAGTACAAATATTTTGAAATAT [XGTACX_site1156] | 10.9 ± 0.59

— the supplement of paper PMC11417369
